Laboratory results: the supplement of paper PMC9334596
Values joined by “and” are separate entries in the source; they are usually repeats but may differ in a detail not shown here. Equal values may be shown once. The full ranking holds about 5,300 compounds; the median of “PER2::LUC luminescence relative to vehicle control” is about 0.96, and the highest 2% start at about 1.3. The list shows a part of the results.

Test system: mPer2Luc MEF
Test: PER2::LUC luminescence relative to vehicle control (fold of vehicle); higher = higher PER2::LUC reporter signal
Details: 10 µM
Method in brief: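 In 384-well plates, ~3000 mPer2Luc reporter mouse embryonic fibroblasts per well were cultured in DMEM with 10% FBS at 37 °C and 5% CO2 for 48 h before compounds from commercial libraries were added at 10 μM. ONE-Glo luciferase readings were taken 24 h and 30 h after treatment. Each value is PER2::LUC luminescence given as fold of vehicle control.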

| SMILES | PER2::LUC luminescence (time after treatment 24 h) | PER2::LUC luminescence (time after treatment 30 h) |
| --- | --- | --- |
| CCOc1cn(-c2ccc(F)cc2C)nc1C(=O)Nc1ccc(Oc2ccnc3cc(OC)c(OC)cc23)c(F)c1 | 0.715 | 0.524 |
| C#C[C@]1(O)CC[C@H]2[C@@H]3CCC4=CC(=O)CC[C@@H]4[C@H]3CC[C@@]21C | 1.14 | 1.02 |
| O=C(O[C@H]1[C@H](Oc2ccccc2COC(=O)C2(O)C=CCCC2=O)O[C@H](CO)[C@@H](O)[C@@H]1O)c1ccccc1 (some centres not stated) | 0.824 | 0.676 |
| Oc1cc(-c2nc(-c3ccccc3)[nH]c2-c2ccncc2)ccc1Cl | 0.619 | 0.781 |
| CC(C)[C@H](C(=O)Nc1ccc(C(=O)NO)cc1)c1ccccc1 | 0.495 and 0.405 | 0.477 and 0.4 |
| C#C[C@]1(OC(C)=O)CC[C@H]2[C@@H]3CCC4=C[C@@H](OC(C)=O)CC[C@@H]4[C@H]3CC[C@@]21C | 1 | 0.99 |
| Nc1ccc(S(=O)(=O)Nc2ncccn2)cc1 | 1.02 | 1.02 |
| CCCC(C)NC(=O)c1ccc(Cl)c(Cl)c1 (configuration not stated) | 1.04 | 0.973 |
| O=C1/C(=C/c2cc(Br)c(O)c(Br)c2)COC/C1=C\c1cc(Br)c(O)c(Br)c1 | 0.259 | 0.258 |
| CNC1CCC(N(Cc2cccc(-c3ccncc3)c2)C(=O)c2sc3ccccc3c2Cl)CC1 (configuration not stated) | 0.456 | 0.486 |
| C[C@@H]1CC[C@@]2(OC1)O[C@H]1C[C@H]3[C@@H]4CC[C@H]5C[C@@H](O)CC[C@]5(C)[C@H]4CC[C@]3(C)[C@H]1[C@@H]2C | 0.932 | 0.927 |
| COc1ccnc(C[S+]([O-])c2nc3cc(-n4cccc4)ccc3[nH]2)c1C (configuration not stated) | 1.07 | 1.05 |
| NC(=O)c1ccc2nc(-c3ccc(Oc4ccc(Cl)cc4)cc3)[nH]c2c1 | 1.29 | 1.16 |
| Nc1ncnc2c1ncn2C1OC(C(=O)NC2CC2)C(O)C1O (configuration not stated) | 1.19 | 1.03 |
| NS(=O)(=O)c1ccc(C(=O)O)cc1 | 0.746 | 1.06 |
| O=[N+]([O-])c1cc(C(F)(F)F)cc([N+](=O)[O-])c1NNC(=S)Nc1ccc(F)cc1 | 0.67 | 0.671 |
| COc1cc2ncnc(Nc3ccc(Cl)cc3F)c2cc1OC | 0.75 | 0.764 |
| CCN(C/C=C/C#CC(C)(C)C)Cc1cccc(OCc2cc(-c3ccsc3)cs2)c1 | 1.21 | 1.12 |
| Cc1ccc(C(=O)NCCCCCC(=O)Nc2ccccc2N)cc1 | 0.71 | 0.746 |
| N#Cc1ccc2[nH]c(O)c(-c3ccc(CN4CCOCC4)cn3)c2c1 | 0.875 | 0.624 |
| CC(=O)O[C@@H]1C[C@@]2(C)C(CC[C@@H]2C(C)=O)C2CCC3=CC(=O)CC[C@]3(C)C21 (some centres not stated) | 1.05 | 0.991 |
| CNc1cc(NS(=O)(=O)c2ccc(N)cc2)nc(NC)n1 | 0.947 | 0.884 |
| CCOc1ccccc1C(N)=O | 1.03 and 0.951 | 0.986 and 0.793 |
| COC(=O)C[C@H]1C(C)(C)[C@@H](OC(C)=O)[C@@H]2CC3=C4CC(=O)O[C@@H](c5ccoc5)[C@]4(C)CC[C@@H]3[C@@]1(C)C2=O | 0.853 | 0.862 |
| Cc1cccc(CCN2CCC(C(=O)c3ccc(NS(C)(=O)=O)cc3)CC2)n1 | 1.02 | 1.04 |
| CO[C@H]1C[C@@H]2CC[C@@H](C)[C@@](O)(O2)C(=O)C(=O)N2CCCC[C@H]2C(=O)O[C@H]([C@H](C)C[C@@H]2CC[C@@H](O)[C@H](OC)C2)CC(=O)[C@H](C)/C=C(\C)[C@@H](O)[C@@H](OC)C(=O)[C@H](C)C[C@H](C)/C=C/C=C/C=C/1C | 0.312 and 0.179 | 0.496 and 0.383 |

| SMILES | PER2::LUC luminescence (time after treatment 24 h) | PER2::LUC luminescence (time after treatment 30 h) |
| --- | --- | --- |
| N[C@@H]1CCCN(c2c(/C=C3\SC(=O)NC3=O)cccc2-c2ccccc2)C1 | 0.806 | 0.821 |
| CCN(CC)CCn1c(=O)c(Cc2ccc(OC)cc2)nc2ccccc21 | 0.816 | 0.894 |
| CN(C)CCCCSC(=N)N | 0.922 | 0.973 |
| COc1ccc2cccc(CCNC(C)=O)c2c1 | 1.02 | 1.05 |
| C1=N/C2=N/c3ccc(OCCN4CCCC4)c(c3)COC/C=C/COCc3cccc(c3)C(=C1)N2 | 0.455 | 0.716 |
| N=C(N)NCCC[C@@H](NC(=O)[C@@H]1CCCN1C(=O)[C@@H]1CSSCCC(=O)N[C@@H](Cc2ccc(O)cc2)C(=O)N[C@@H](Cc2ccccc2)C(=O)N[C@@H](CCC(N)=O)C(=O)N[C@@H](CC(N)=O)C(=O)N1)C(=O)NCC(N)=O | 1.06 | 0.999 |
| CC1=C(C)C(=O)C(CCCCC#CCCCC#CCO)=C(C)C1=O | 0.959 | 1.07 |
| CN(C)C(=O)c1ccc(S(=O)(=O)c2ccc(NC(=O)[C@@](C)(O)C(F)(F)F)c(Cl)c2)cc1 | 0.296 | 0.568 |
| C#C[C@]1(O)CC[C@H]2[C@@H]3CCc4cc(OC)ccc4[C@H]3CC[C@@]21C | 0.993 | 1.18 |
| CC(C)NCC(O)c1ccc(NS(C)(=O)=O)cc1 (configuration not stated) | 1.06 and 1.07 | 1.03 and 0.917 |
| CC(=O)N1CCN(c2ccc(OCC3COC(Cn4ccnc4)(c4ccc(Cl)cc4Cl)O3)cc2)CC1 (configuration not stated) | 0.957 | 1.01 |
| CN(CCOc1ccc(NS(C)(=O)=O)cc1)CCc1ccc(NS(C)(=O)=O)cc1 | 0.978 | 0.961 |
| CNCC(O)c1ccc(O)c(O)c1 (racemic) | 1.21 | 1.2 |
| Cc1[nH]c(/C=C2\C(=O)Nc3ccccc32)c(C)c1CCC(=O)O | 1.01 | 1.2 |
| Cc1nc(C)c(Cl)c(O)c1Cl | 0.852 | 1.22 |
| CC(C(=O)O[C@]12CCC[C@H](CC1)N2C)c1ccc(Br)cc1 (some centres not stated) | 0.821 | 0.934 |
| COc1ccc(/C=C/c2cc(OC)cc(=O)o2)cc1 | 1.06 | 1.22 |
| O=C(NO)C1(CS(=O)(=O)c2ccc(Oc3ccc(Cl)cc3)cc2)CCOCC1 | 1 | 0.895 |
| CCN(CC)CCCC(C)Nc1c2ccc(Cl)cc2nc2ccc(OC)cc12 (configuration not stated) | 0.447 and 0.203 | 0.738 and 0.426 |
| O=C(O)P(=O)(O)O | 1.03 | 1.03 |
| CC(C)(C)NS(=O)(=O)c1cncc(-c2cc(F)c3nc(N)nn3c2)c1 | 1.02 | 1.08 |
| CCCCCCCCCCCCCCCC[N+](C)(C)CCN(Cc1ccc(OC)cc1)c1ncccn1 | 0.289 | 0.192 |
| C#CCN(Cc1cc2c(=O)[nH]c(C)nc2cc1Br)c1ccc(C(=O)NCc2cccnc2)cc1 | 0.902 | 0.731 |
| Cc1ccc2c(Nc3ccc(Cl)cc3)nccc2c1Nc1ncccc1-c1ncnc2nc[nH]c12 | 0.42 | 0.349 |
| CC(C)(C)c1ccc(S(=O)(=O)Nc2ccc(-n3ccnc3)cc2)cc1 | 1.15 | 1.26 |
